Measured values: the GPR68 mutational scans of Howard et al. (2025)
The least precise scores are not listed. Two further conditions of the source, in which the scores hardly spread, are not listed. Read del as a deletion of the residues named and ins as an insertion between two positions. For some of these results: How much ogerin was present is not stated here.

B1: GPR68, Q15743 (parent)
chain: MGNITADNSSMSCTIDHTIHQTLAPVVYVTVLVVGFPANCLSLYFGYLQIKARNELGVYLCNLTVADLFYICSLPFWLQYVLQHDNWSHGDLSCQVCGILLYENIYISVGFLCCISVDRYLAVAHPFRFHQFRTLKAAVGVSVVIWAKELLTSIYFLMHEEVIEDENQHRVCFEHYPIQAWQRAINYYRFLVGFLFPICLLLASYQGILRAVRRSHGTQKSRKDQIQRLVLSTVVIFLACFLPYHVLLLVRSVWEASCDFAKGVFNAYHFSLLLTSFNCVADPVLYCFVSETTHRDLARLRGACLAFLTCSRTGRAREAYPLGAPEASGKSGAQGEEPELLTKLHPAFQTPNSPGSGGFPTGRLA

Columns and labels:
[1] = variants of: B1; assay: cAMP reporter score (Enrich2 score, wild type = 0); higher = more signal; HEK293T, FACS bins
[2] = variants of: B1; assay: surface expression score (Enrich2 score, wild type = 0); higher = more signal; HEK293T, FACS bins

| Variant | cAMP reporter score ([1]; pH 5.5) | cAMP reporter score ([1]; pH 6) | cAMP reporter score ([1]; pH 6.5, modulator: ogerin) | surface expression score [2] | cAMP reporter score ([1]; pH 6, modulator: ogerin) |
| --- | --- | --- | --- | --- | --- |
| G46_Y47insGS | -1.73 | -0.745 | -1.24 | -3.04 | – |
| A52S | 1.53 | 0.847 | 0.65 | – | 1.73 |
| A52I | -0.28 | – | – | -2.54 | 0.338 |
| A52K | 0.879 | 2.13 | 1.94 | 1.38 | 1.24 |
| A52C | -0.961 | -1.52 | -1.23 | -1.5 | -0.737 |
| A52L | -0.197 | -0.733 | 0.191 | -0.977 | -0.376 |
| A52V | -0.576 | -1.31 | -0.023 | -1.6 | -0.115 |
| A52M | 0.102 | 0.301 | -0.998 | -0.621 | -0.534 |
| A52T | -0.798 | -0.747 | -0.475 | -0.701 | -0.955 |
| A52H | -0.173 | -0.53 | -0.462 | -0.737 | -0.045 |
| A52D | 0.856 | -0.291 | 0.691 | -0.487 | 0.975 |
| A52F | -1.22 | – | -0.979 | -1.79 | -0.499 |
| A52N | -0.25 | -0.72 | 0.317 | -0.571 | 0.133 |
| A52Q | 0.002 | -0.563 | -0.136 | -1.21 | – |
| A52E | -0.072 | -0.415 | 0.367 | -0.811 | -0.36 |
| A52W | -1.37 | -0.592 | -0.845 | -1.84 | -0.904 |

| Variant | cAMP reporter score ([1]; pH 5.5) | cAMP reporter score ([1]; pH 6) | cAMP reporter score ([1]; pH 6.5, modulator: ogerin) | surface expression score [2] | cAMP reporter score ([1]; pH 6, modulator: ogerin) |
| --- | --- | --- | --- | --- | --- |
| A52P | -1.21 | -0.172 | -1.02 | -2.64 | -0.604 |
| A52Y | 0.718 | -1.16 | -0.212 | -1.68 | -0.156 |
| A52R | 0.244 | 1.45 | 0.88 | 0.655 | 0.073 |
| R53_N54del | -2.04 | -0.453 | -0.53 | -3.33 | -0.879 |
| K51_A52del | -1.71 | -1.33 | -0.877 | -1.94 | -0.939 |
| R53_N54insGS | -1.17 | -1.06 | -0.905 | -2.52 | -2.09 |
| Q49N | -0.111 | -0.59 | -0.582 | -0.253 | 0.607 |
| Q49R | 1.32 | 1.95 | 1.73 | -1.55 | 0.737 |
| Q49P | -0.43 | -1.41 | -1.19 | -1.99 | -1.94 |
| Q49E | -1.47 | -1.35 | -1.44 | -0.889 | -2.02 |
| Q49K | 0.293 | 2.1 | 2.56 | -1.4 | 0.23 |
| Q49Y | -1.26 | – | -1.58 | -2.06 | -0.561 |
| Q49A | 0.272 | -0.158 | -0.002 | 0.202 | -0.216 |
| Q49T | -1.52 | -1.84 | -0.905 | -0.872 | -1.52 |
| Q49S | -0.559 | -0.989 | -1.85 | -1.43 | -0.978 |
